The source of these data is PubChem BioAssay AID1963982 (Molecular Pharmacology Branch, DTP, NCI, 2024).

Certain results were filed several times, with different values. The other results are left out here. An entry can have further records. The values listed for one entry repeat one measurement across runs, samples, wells, individuals or studies.

The assay concerns 313798-341-R-J2-PDC spheroids, viability. The experiment in a line: Anticancer human tumor 313798-341-R-J2-PDC patient-derived cervical squamous cell carcinoma cell line growth inhibition [PI3K]. The conditions noted are these: spheroids with HUVEC and MSC; for viability, T/C: stronger effect = lower value; for IC50: compound alone. The text has this: Combinatorial screen of targeted agents with the PI3K inhibitors inavolisib, alpelisib, duvelisib, and copanlisib in multi-cell type tumor spheroids
A high-throughput screen of multi-cell type tumor spheroids was designed to identify active combinations of targeted small molecules and PI3K pathway inhibitors. Complex spheroids include a stromal component modeled by human endothelial cells (HUVEC) and fibroblasts modeled by human mesenchymal stem cells (MSCs). The concentration ranges selected for each drug and investigational agent were based upon clinically achievable concentrations if the clinical Cmax of the agent was known.
Compounds. The drugs and investigational agents: inavolisib (NSC800729), alpelisib (NSC765974), duvelisib (NSC772469), copanlisib (NSC816437), ipatasertib (NSC767898), afuresertib (NSC778305), talazoparib (NSC767125), sapanisertib (NSC764658), selumetinib (NSC741078), tovorafenib (DAY101, NSC766906), vemurafenib (NSC761431), ravoxertinib (NSC781343), sotorasib (NSC818433), MRTX1133 (NSC 836407), abemaciclib (NSC 768073), palbociclib (NSC758247), venetoclax (NSC 766270), SY5609 (NSC837396), enzalutamide (NSC755605), and darolutamide (NSC825331), were obtained from the National Cancer Institute (NCI) Developmental Therapeutics Program Chemical Repository. The FDA-approved anticancer drug set is available from the NCI Developmental Therapeutics Program. […] The stock solutions were prepared in dimethyl sulfoxide (DMSO, Sigma-Aldrich, St. Louis, MO, cat. D2650) at 800-fold the tested concentration and stored at -70 degrees C prior to their use. All drugs and investigational agents were tested over a range starting from a high concentration at or near the clinical Cmax and decreasing in half-log increments. If the clinical Cmax for an agent had not been determined, the highest concentration tested was 10 microM.
Cell Culture. All cells were maintained in an incubator at 37 degrees C and 5% CO2 with 95% humidity. The PDC lines were cultured according to standard operating procedures established by the NCI PDMR (https://pdmr.cancer.gov/sops/default.htm). All PDCs were thawed and cultured in Matrigel-coated flasks prepared with a working solution of 1X Ham's F-12 nutrient mix, without supplementation (Invitrogen, Waltham, MA, cat. 11765054), 100 U/mL penicillin-streptomycin (Invitrogen, cat. 15140122), and 2.5% Matrigel (Corning Inc., Corning, NY, cat. 354248) for the first three passages. The 354836-022-R-J1-PDC, 475296-252-R-J1-PDC, and 997726-040-R-J2-PDC lines were cultured in 6A media, which includes advanced DMEM/F-12 (Thermo Fisher Scientific, cat. 12634028), 10 mM HEPES (Thermo Fisher Scientific, cat. 15630080), 1X GlutaMAX supplement (Thermo Fisher Scientific, cat. 35050061), 0.1 mg/mL primocin (InvivoGen, San Diego, CA, cat. ant-pm-2), 10% defined fetal bovine serum, heat inactivated (HyClone Laboratories Inc., Logan, UT, cat. SH30070.03HI), 50% L-WRN conditioned media (ATCC, cat. CRL-3276), 1.25 mM N-Acetyl-L-cysteine (Sigma-Aldrich, cat. A9165), 10 mM nicotinamide (Sigma-Aldrich, cat. N0636), 1X B-27 supplement (Thermo Fisher Scientific, cat. 17504044), 1X N-2 supplement (Thermo Fisher Scientific, cat. 17502048), and 10 microM Y-27632 dihydrochloride (Tocris Bioscience, Bristol, United Kingdom, cat. 1254). The 624824-186-R-J2-PDC line was cultured in 6C/Colon 1B media, which includes all 6A media components plus 50 ng/mL human EGF recombinant protein (Thermo Fisher Scientific, cat. PHG0311). […]
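Also: spheroids exposed to compounds for seven days.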

`Cn1ncnc1[C@H]1c2n[nH]c(=O)c3cc(F)cc(c23)N[C@@H]1c1ccc(F)cc1`: where the note is “compound alone 0.000316 µM”, the viability, T/C is 97.4, 105, 87.2, 114%.

As to `C[C@@H](NC(=O)c1ncnc(N)c1Cl)c1ncc(C(=O)Nc2cc(C(F)(F)F)c(Cl)cn2)s1`, for the setting “compound alone 10 µM”, the viability, T/C is given as 108, 7.04, 97.8, 118%.

`CC1(C)CCC(CN2CCN(c3ccc(C(=O)NS(=O)(=O)c4ccc(NCC5CCOCC5)c([N+](=O)[O-])c4)c(Oc4cnc5[nH]ccc5c4)c3)CC2)=C(c2ccc(Cl)cc2)C1`: the IC50 is on record as 5.41 µM, 5.14 µM, 8.4 µM, > 10 µM. The viability, T/C (compound alone 10 µM) is on record as 20, 19.3, 44.6, 102%.

For the compound `Cn1cnc2c(F)c(Nc3ccc(Br)cc3Cl)c(C(=O)NOCCO)cc21`, the viability, T/C is 96.3, 63.5, 86.5, 93.5% (compound alone 0.949 µM) and 86.1, 22.1, 80.4, 81% (compound alone 3 µM).

In the case of `CCN1CCN(Cc2ccc(Nc3ncc(F)c(-c4cc(F)c5nc(C)n(C(C)C)c5c4)n3)nc2)CC1`, the viability, T/C (compound alone 0.00316 µM) was 104, 96.6, 114, 88.8%.

As to `CC(Nc1ccc2c(c1)OCCn1cc(N3C(=O)OCC3C(F)F)nc1-2)C(N)=O` (stereo not given), the viability, T/C (compound alone 0.1 µM) was 80.9, 100, 94.1, 82.1, 109, 96.4, 105, 91.9%.

As to `CC1(C)CCC(Nc2ncc(C(F)(F)F)c(-c3c[nH]c4c(P(C)(C)=O)c(C#N)ccc34)n2)CN1` (stereo not given), the IC50 is reported as > 10 µM, 31.6 nM, < 31.6 nM. The viability, T/C (compound alone 10 µM) is reported as 70.1, 32.7, 64.8, 40.1%.

A word on the viability, T/C: it is the result in the treated group divided by that in the control group, in per cent. As usually defined, the IC50 is the concentration at which inhibition is half-maximal.
